Data on 16 compounds can be found in the antibiotic and cytotoxicity screens of Wong et al. (2023).

One assay deals with HSkMC. Put plainly: cytotoxicity call (relative viability < 0.9). Particulars: 10 µM.
A further assay concerns HepG2. As to the kind of experiment: cytotoxicity call (relative viability < 0.9). Particulars: 10 µM.
The subject of another assay is S. aureus RN4220. As to the kind of experiment: growth inhibition call (relative growth <= 0.2). Particulars: 50 µM.

Each structure is given as a SMILES string. Some of the results follow.

`O=C(C[C@@H]1CC=CCC[C@@H](Cc2ccc(F)cc2)C(=O)OC[C@H](Cc2c[nH]c3ccccc23)NC1=O)N[C@@H](CO)Cc1ccccc1`: in the assay on HSkMC, the cytotoxicity call is “inactive”. The cytotoxicity call with HepG2 is “active”. The growth inhibition call in the assay with S. aureus RN4220 was “inactive”.
For the compound `CC(C)CCC(=O)N1C[C@@H]2c3nc(N4CCOCC4)ncc3CS(=O)(=O)[C@H]2C1`, the cytotoxicity call in the assay on HSkMC and in the assay on HepG2 was “inactive” each time. Moreover, the growth inhibition call in the assay with S. aureus RN4220 is “inactive”.
Consider `COc1cccc(S(=O)(=O)Nc2ccc3c(c2)[C@H]2C[C@H](CC(=O)NCCc4ccccc4)O[C@@H](CO)[C@H]2O3)c1`, for which the cytotoxicity call with HSkMC and in the assay on HepG2 was “inactive” throughout. The growth inhibition call in the assay on S. aureus RN4220 is “inactive”.
For `C[C@H]1CN([C@@H](C)CO)C(=O)c2cccc(NC(=O)C3CCOCC3)c2O[C@@H]1CN(C)S(=O)(=O)c1cn(C)cn1`, the cytotoxicity call with HSkMC and in the assay with HepG2 was “inactive” in each case. In the assay with S. aureus RN4220, the growth inhibition call was “inactive”.
With `CC(=O)N[C@@H](C(=O)O)C(C)(C)S[NH2+][O-]`, the cytotoxicity call with HSkMC and in the assay on HepG2 was “inactive” each time. Besides, the growth inhibition call in the assay on S. aureus RN4220 was “inactive”.
With `Cn1c(=O)c2c(ncn2CCO)n(C)c1=O`, the cytotoxicity call with HSkMC and in the assay on HepG2 was “inactive” each time. In the assay with S. aureus RN4220, the growth inhibition call is “inactive”.
In the case of `C[C@H](CO)N1C[C@H](C)[C@@H](CN(C)Cc2ccncc2)Oc2ccc(NC(=O)CCN3CCOCC3)cc2C1=O`, the cytotoxicity call in the assay with HSkMC and with HepG2 was “inactive” each time. In the assay with S. aureus RN4220, the growth inhibition call was “inactive”.
Regarding `C[C@H](CO)N1C[C@H](C)[C@H](CN(C)S(=O)(=O)c2ccc(Cl)cc2)OCCCC[C@H](C)Oc2ccc(NC(=O)c3ccccc3)cc2C1=O`, the cytotoxicity call in the assay on HSkMC and in the assay with HepG2 was “inactive” throughout. Besides, in the assay with S. aureus RN4220, the growth inhibition call is “inactive”.
On to `C/C(=C\C(=O)OCCCCCCCCC(=O)O)C[C@@H]1OC[C@H](C[C@@H]2O[C@H]2[C@@H](C)[C@H](C)O)[C@@H](O)[C@H]1O`, for which the cytotoxicity call in the assay with HSkMC and in the assay on HepG2 was “inactive” in each case. For the same compound, the growth inhibition call in the assay on S. aureus RN4220 is “inactive”.
With `CCCN(C)C[C@@H]1OCCCC[C@@H](C)Oc2ccc(NC(=O)Nc3ccccc3)cc2C(=O)N([C@H](C)CO)C[C@@H]1C`, the cytotoxicity call in the assay with HSkMC and in the assay with HepG2 was “inactive” each time. In the assay on S. aureus RN4220, the growth inhibition call was “inactive”.
For `COCC(=O)N[C@@H]1C[C@H](CO)[C@H](O)C1`, the cytotoxicity call with HSkMC and with HepG2 was “inactive” throughout. In addition, the growth inhibition call with S. aureus RN4220 was “inactive”.
Consider `CC(=O)C1(O)CCC2C3CC(C)C4=CC(=O)C=CC4(C)C3(F)C(O)CC21C` (stereo not drawn), for which the cytotoxicity call in the assay with HSkMC and with HepG2 was “inactive” in each case. Further, in the assay on S. aureus RN4220, the growth inhibition call was “inactive”.
Turning to `Cc1cccnc1[C@@H](NC(=O)C1CCN(Cc2ccc(Oc3ccccc3)cc2)CC1)c1ccc(F)cc1`, the cytotoxicity call in the assay on HSkMC (human skeletal muscle cells) and with HepG2 was “inactive” each time. The growth inhibition call in the assay on S. aureus RN4220 is “inactive”.
`CC[C@@H](C)SSc1ncc[nH]1`: the cytotoxicity call in the assay with HSkMC was “active”. Besides, in the assay with HepG2, the cytotoxicity call is “inactive”. For the same compound, the growth inhibition call in the assay on S. aureus RN4220 is “active”.
In the case of `O=C(C[C@@H]1C[C@H]2c3cc(NC(=O)C4CCOCC4)ccc3O[C@H]2[C@H](CO)O1)NCCN1CCCCC1`, the cytotoxicity call with HSkMC and in the assay with HepG2 was “inactive” in each case. The growth inhibition call with S. aureus RN4220 is “inactive”.
As to `CCn1cnc2c(=O)[nH][nH]c(=O)c21`, the cytotoxicity call in the assay with HSkMC and in the assay on HepG2 was “inactive” each time. For the same compound, the growth inhibition call in the assay with S. aureus RN4220 was “inactive”.
